Measurements taken from the supplement of paper PMC6531468.
The other results are listed elsewhere or left out. Values come from read counts of a selection and are noisy. Scores sum up all selected molecules that hold the word; the word was not tested alone.

Test system: IMP3 KH1-4
Assay: 6-mer SELEX enrichment z-score vs GST control; IMP3 is the RNA-binding protein IGF2BP3; higher = more enriched by binding
Conditions: construct: KH1-4 (164-579); SELEX round: R4
Procedure: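 SELEX-seq with GST-tagged IMP3 KH1-4 (Pro164-Lys579) and an N40 RNA pool, round 4. 6-mer z-score of sequence-tag enrichment normalised to the corresponding GST SELEX round; RNA k-mers written as DNA (T for U).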

IMP3 KH1-4, sequence (chain, as listed by the source): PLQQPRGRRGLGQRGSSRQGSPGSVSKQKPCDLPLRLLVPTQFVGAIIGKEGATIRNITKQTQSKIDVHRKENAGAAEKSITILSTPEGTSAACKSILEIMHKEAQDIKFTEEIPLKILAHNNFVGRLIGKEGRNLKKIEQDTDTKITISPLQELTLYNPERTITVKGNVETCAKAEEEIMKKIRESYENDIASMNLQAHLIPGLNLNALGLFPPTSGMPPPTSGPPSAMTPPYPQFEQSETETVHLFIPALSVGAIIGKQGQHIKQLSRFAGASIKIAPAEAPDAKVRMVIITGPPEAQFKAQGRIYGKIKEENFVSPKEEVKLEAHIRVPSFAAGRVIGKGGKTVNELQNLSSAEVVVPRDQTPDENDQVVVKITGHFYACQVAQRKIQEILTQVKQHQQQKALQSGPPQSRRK

| Sequence | 6-mer SELEX enrichment z-score |
| --- | --- |
| AGCCCA | -1.62 |
| CGACTT | -0.604 |
| GATGTT | 0.254 |
| GAGATT | 0.436 |
| ACCCCG | -1.16 |
| TTGGCT | 0.051 |
| CAAGAT | 0.288 |
| TCGTTC | 0.099 |
| GAGCAA | -1.45 |
| CTCTTC | 0.303 |
| AACCTT | -0.592 |
| GCACAG | 1.04 |
| CTGCGT | -1.57 |
| GCATAA | 0.868 |
| CTAGAG | -0.837 |
| GATGAT | 1.51 |
| AAGTTG | -0.226 |
| ATGTGG | 0.792 |
| CCCCGA | -1.88 |
| TGCGAG | -1.14 |

| Sequence | 6-mer SELEX enrichment z-score |
| --- | --- |
| GTTTTC | -0.116 |
| ATGTTC | 0.617 |
| AAGTGC | -0.266 |
| GTTAGG | 0.414 |
| CTTGTA | -0.093 |
| TCCCAG | -0.894 |
| CACCGT | -0.201 |
| CTTTCC | 0.742 |
| CGGCTG | 0.486 |
| AAATAT | 1.61 |
| ACCGGA | -0.409 |
| AGAGTC | 0.327 |
| GAACAA | 0.366 |
| TAGGGT | 0.16 |
| TTCATG | 0.976 |
| TTCCTG | 0.225 |
| ACCGTC | -0.516 |
| GTCATA | 0.526 |
| TAGCGC | -0.652 |

Test system: IMP3 RRM1-2
Assay: as above
Conditions: construct: RRM1-2 (1-163); SELEX round: R2
Procedure: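 SELEX-seq with GST-tagged IMP3 RRM1-2 (Met1-Asn163) and an N40 RNA pool, round 2. 6-mer enrichment z-score normalised to GST SELEX. RNA written as DNA (T = U).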

IMP3 RRM1-2, sequence (chain, as listed by the source): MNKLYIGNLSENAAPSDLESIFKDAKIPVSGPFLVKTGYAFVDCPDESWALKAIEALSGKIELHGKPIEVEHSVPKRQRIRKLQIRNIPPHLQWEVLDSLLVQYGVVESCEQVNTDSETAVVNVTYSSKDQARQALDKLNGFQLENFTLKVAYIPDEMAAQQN

| Sequence | 6-mer SELEX enrichment z-score |
| --- | --- |
| AGCCCA | -0.595 |
| CGACTT | -0.218 |
| GATGTT | -0.013 |
| GAGATT | -0.299 |
| ACCCCG | -1.03 |
| TTGGCT | 0.558 |
| CAAGAT | -0.365 |
| TCGTTC | 0.506 |
| GAGCAA | 0.071 |
| CTCTTC | 0.536 |
| AACCTT | -0.612 |
| GCACAG | 0.959 |
| CTGCGT | 0.194 |
| GCATAA | 0.127 |
| CTAGAG | -0.272 |
| GATGAT | -0.523 |
| AAGTTG | -0.238 |
| ATGTGG | 0.162 |
| CCCCGA | -1.43 |
| TGCGAG | -0.137 |

| Sequence | 6-mer SELEX enrichment z-score |
| --- | --- |
| GTTTTC | 0.417 |
| ATGTTC | 0.164 |
| AAGTGC | -0.393 |
| GTTAGG | 0.353 |
| CTTGTA | 0.075 |
| TCCCAG | -0.401 |
| CACCGT | -0.03 |
| CTTTCC | 0.082 |
| CGGCTG | 0.235 |
| AAATAT | -0.902 |
| ACCGGA | -1.44 |
| AGAGTC | -0.142 |
| GAACAA | -0.743 |
| TAGGGT | 0.392 |
| TTCATG | 0.777 |
| TTCCTG | 0.074 |
| ACCGTC | -0.287 |
| GTCATA | 0.41 |
| TAGCGC | 0.058 |

Test system: IMP3 KH1-2
Assay: as above
Conditions: construct: KH1-2 (164-376); SELEX round: R4
Procedure: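 SELEX-seq with GST-tagged IMP3 KH1-2 (Pro164-Phe376) and an N40 RNA pool, round 4 (stringent 300/600 mM KCl washes). 6-mer z-score of sequence-tag enrichment normalised to the corresponding GST SELEX round; RNA k-mers written as DNA (T for U).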

IMP3 KH1-2, sequence (chain, as listed by the source): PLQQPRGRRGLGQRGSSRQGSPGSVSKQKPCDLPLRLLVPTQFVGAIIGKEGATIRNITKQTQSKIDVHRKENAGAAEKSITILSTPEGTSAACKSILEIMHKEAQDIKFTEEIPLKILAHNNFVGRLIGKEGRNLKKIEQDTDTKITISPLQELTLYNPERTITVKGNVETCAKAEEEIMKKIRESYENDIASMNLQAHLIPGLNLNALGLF

| Sequence | 6-mer SELEX enrichment z-score |
| --- | --- |
| CGACTT | -0.581 |
| GATGTT | 0.119 |
| GAGATT | 0.318 |
| ACCCCG | -1.06 |
| TTGGCT | 0.081 |
| CAAGAT | 0.166 |
| TCGTTC | 0.015 |
| CTCTTC | 0.416 |
| GCACAG | 0.867 |
| CTGCGT | -1.4 |
| GATGAT | 1.02 |
| ATGTGG | 0.55 |
| CCCCGA | -1.47 |
| GTTTTC | -0.086 |
| ATGTTC | 0.401 |
| GTTAGG | 0.358 |
| TCCCAG | -0.875 |
| CTTTCC | 0.666 |
| CGGCTG | 0.35 |
| AAATAT | 1.4 |
| AGAGTC | 0.201 |
| GAACAA | 0.542 |
| TTCATG | 0.841 |
| TTCCTG | 0.17 |
| TAGCGC | -0.626 |

Test system: IMP3 KH3-4
Assay: as above
Conditions: construct: KH3-4 (377-579); SELEX round: R4
Procedure: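 SELEX-seq with GST-tagged IMP3 KH3-4 (Pro377-Lys579) and an N40 RNA pool, round 4. 6-mer z-score of sequence-tag enrichment normalised to the corresponding GST SELEX round; RNA k-mers written as DNA (T for U).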

IMP3 KH3-4, sequence (chain, as listed by the source): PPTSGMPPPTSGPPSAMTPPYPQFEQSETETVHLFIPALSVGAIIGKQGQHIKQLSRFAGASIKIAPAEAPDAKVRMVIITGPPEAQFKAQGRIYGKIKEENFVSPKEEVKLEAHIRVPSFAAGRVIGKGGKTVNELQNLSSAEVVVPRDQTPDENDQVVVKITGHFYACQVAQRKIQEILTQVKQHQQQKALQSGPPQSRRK

| Sequence | 6-mer SELEX enrichment z-score |
| --- | --- |
| AGCCCA | -1.84 |
| CGACTT | -0.572 |
| GATGTT | 0.375 |
| GAGATT | 0.794 |
| ACCCCG | -1.76 |
| TTGGCT | 0.253 |
| CAAGAT | 0.487 |
| TCGTTC | 0.02 |
| GAGCAA | -1.13 |
| CTCTTC | 0.085 |
| AACCTT | -0.802 |
| GCACAG | 0.602 |
| CTGCGT | -1.24 |
| GCATAA | 1.01 |
| CTAGAG | -0.612 |
| GATGAT | 1.7 |
| AAGTTG | -0.18 |
| ATGTGG | 0.829 |
| CCCCGA | -2.25 |
| TGCGAG | -0.78 |

| Sequence | 6-mer SELEX enrichment z-score |
| --- | --- |
| GTTTTC | 0.009 |
| ATGTTC | 0.5 |
| AAGTGC | -0.216 |
| GTTAGG | 0.491 |
| CTTGTA | -0.051 |
| TCCCAG | -1.06 |
| CACCGT | -0.8 |
| CTTTCC | 0.102 |
| CGGCTG | 0.377 |
| AAATAT | 2.78 |
| ACCGGA | -0.684 |
| AGAGTC | 0.249 |
| GAACAA | 0.759 |
| TAGGGT | 0.468 |
| TTCATG | 0.859 |
| TTCCTG | -0.073 |
| ACCGTC | -0.954 |
| GTCATA | 0.554 |
| TAGCGC | -0.511 |
